# Screen size: about 270,000 compounds; about 620 (0.23%) were called active. The shares of active, inactive and inconclusive entries below differ from those in the screen. Calls follow the shape of the dose curve; as a rule, active = well fitted inhibition curve with a large enough effect in the polarisation, with a control signal flat (not every such curve was filed as active); inconclusive = small, poorly fitted or top-dose-only effect, or effect the other way, or a change in a side signal; inactive = no such curve, though single readings can be large or run the other way; the % refers to the polarisation. Potencies beside an inconclusive call are fits to weak or partial responses and may not hold up. A note “side channel” means that the fit belongs to a control or component signal, not to the main read-out.
# Biological target: Menin (Homo sapiens) (UniProt O00255)
# Chain of UniProt O00255 (O00255 whole entry, looked up): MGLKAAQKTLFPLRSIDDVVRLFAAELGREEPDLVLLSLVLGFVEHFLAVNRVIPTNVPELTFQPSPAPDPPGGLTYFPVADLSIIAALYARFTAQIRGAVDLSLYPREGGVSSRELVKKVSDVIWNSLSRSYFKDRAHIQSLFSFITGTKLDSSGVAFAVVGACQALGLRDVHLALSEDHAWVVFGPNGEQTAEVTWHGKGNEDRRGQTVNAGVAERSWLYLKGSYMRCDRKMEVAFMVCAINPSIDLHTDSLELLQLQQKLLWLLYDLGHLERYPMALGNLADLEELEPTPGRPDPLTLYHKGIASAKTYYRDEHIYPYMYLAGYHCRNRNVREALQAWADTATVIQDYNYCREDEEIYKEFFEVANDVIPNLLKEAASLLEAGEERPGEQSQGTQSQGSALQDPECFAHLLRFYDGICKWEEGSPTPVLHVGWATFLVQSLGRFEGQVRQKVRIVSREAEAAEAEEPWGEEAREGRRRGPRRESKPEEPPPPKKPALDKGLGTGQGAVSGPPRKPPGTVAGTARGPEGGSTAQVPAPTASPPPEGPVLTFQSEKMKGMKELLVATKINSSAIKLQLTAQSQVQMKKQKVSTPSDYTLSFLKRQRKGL
# Assay: qHTS Assay for Inhibitors Targeting the Menin-MLL Interaction in MLL Related Leukemias: Competition With Texas Red Labeled MLL-derived Mutant Peptide
# Settings: fluorescence polarization; series mostly up to 61.6 µM
# Potency is read from the fitted curve at half-maximal effect; tags tell the direction and shape of the fitted curve or compound fluorescence and quenching.
row,Compound,Potency
1,Oc1ccc(NC(=S)N=Nc2c(O)[nH]c3ccc(Br)cc23)cc1,"inconclusive: 28.2 µM [quencher, side channel, partial curve]"
2,COc1cc(/C=N/Nc2nc(Nc3ccccc3)nc(N3CCCCC3)n2)ccc1OCC(=O)O,"inconclusive: 39.8 µM [quencher, single point]"
3,CCOc1ccccc1NC(=O)CN1CCc2ccccc2C1,"inconclusive: 10 µM [fluorescent, side channel, partial curve]"
4,O=C(O)c1cc(N/N=C/c2c(O)ccc3ccccc23)ccc1Cl,"inconclusive: 14.1 µM [quencher, side channel, partial curve]"
5,CC1CCCCN1S(=O)(=O)c1ccc(C(=O)Nc2sccc2C(N)=O)cc1 (configuration not stated),"inconclusive: 3.16 µM [quencher, side channel, full curve]"
6,O=C(NC(=S)Nc1ccc(N2CCOCC2)cc1)c1ccc2c(c1)OCCO2,"inconclusive: 20 µM [quencher, side channel, single point]"
7,CCN(CCCNC(=O)CC(C(=O)N1CCc2ccccc21)n1ccnc1)c1ccccc1 (configuration not stated),"inconclusive: 20 µM [fluorescent, side channel, single point]"
8,Cc1ccc(NS(=O)(=O)c2ccc(Cl)c(C(=O)Nc3cccc(C(=O)O)c3)c2)cc1,"inconclusive: 39.8 µM [quencher, side channel, single point]"
9,Cc1nc(SCC(=O)N2CCC(C(N)=O)CC2)n[nH]1,"inconclusive: 7.94 µM [inhibitor, partial curve]"
10,Cn1c(C(=O)OCC(=O)NCCc2ccccc2)cc2sccc21,"inconclusive: 22.4 µM [fluorescent, side channel, single point]"
11,COc1cccc(/C=C2\SC(=S)N(CCCC(=O)N3CCCC3)C2=O)c1,"inconclusive: 7.94 µM [fluorescent, side channel, full curve, poor fit]"
12,O=C(Nc1ccc(NC(=O)c2ccc([N+](=O)[O-])cc2[N+](=O)[O-])cc1)c1ccco1,"inconclusive: 28.2 µM [quencher, side channel, partial curve]"
13,O=C(NNC(=S)Nc1cccc(C(F)(F)F)c1)c1ccc(Cl)cc1Cl,"inconclusive: 12.6 µM [quencher, side channel, partial curve]"
14,Cc1ccc(NC(=O)C2C(c3ccccc3)C=CC(c3ccccc3)C2C(=O)O)cc1 (configuration not stated),"inconclusive: 20 µM [quencher, side channel, partial curve]"
15,CN(CCCC(=O)O)S(=O)(=O)c1ccc2c(c1)C(=O)c1cc(S(=O)(=O)N(C)CCCC(=O)O)ccc1-2,inactive
16,O=S(=O)(NCC(Nc1ccc(Cl)cc1)c1ccccc1)c1ccc(Cl)cc1 (configuration not stated),"inconclusive: 11.2 µM [quencher, side channel, partial curve]"
17,CC(C)C[C@@H](CC(=O)N[C@H](CC(=O)N[C@@H]1CCCC[C@H]1C(=O)N[C@H](CC(=O)N[C@@H](CCC(=O)O)CC(=O)O)Cc1c[nH]c2ccccc12)C(C)C)NC(=O)[C@@H]1CNCC[C@H]1N,"inconclusive: 6.31 µM [inhibitor, single point]"
18,Cc1cc(C(=O)NCC(=O)OCC(=O)N(C)C2CCCCC2)ccc1[N+](=O)[O-],inactive
19,CCOc1ccc(/C=C2/SC(=O)NC2=S)cc1,"inconclusive: 28.2 µM [quencher, side channel, partial curve]"

row,Compound,Potency
1,COc1ccccc1CN1C[C@@H]2C[C@@H](c3ccc(C)cc3)N3CCC[C@@]23C1=O,"inconclusive: 7.94 µM [fluorescent, side channel, full curve]"
2,Cc1csc(NC(=O)c2cc(=O)[nH]c3ccc(S(=O)(=O)N4CCOCC4)cc23)n1,inactive
3,COc1ccc(OC)c(Nc2nc(N(C)c3ccccc3)nc(N)c2[N+](=O)[O-])c1,"inconclusive: 28.2 µM [quencher, side channel, single point]"
4,C=CCN1C(=O)/C(=C\c2ccc(Oc3nc(N4CCOCC4)nc(N4CCOCC4)n3)c(OC)c2)SC1=S,"inconclusive: 12.6 µM [fluorescent, side channel, single point]"
5,O=c1ccc2cc(S(=O)(=O)Nc3ccc(F)cc3)ccc2o1,inactive
6,O=C(NNc1nc(-c2ccc(Br)cc2)cs1)c1ccco1,"inconclusive: 25.1 µM [quencher, side channel, partial curve]"
7,COC(=O)[C@@]1(Cc2ccccc2)[C@H]2c3cc(C(=O)N(C)C)n(CCF)c3C[C@H]2CN1C(=O)c1ccccc1,inactive
8,CCc1nnc(NC(=O)c2ccc(-c3cc(C(F)(F)F)ccc3Cl)o2)s1,"inconclusive: 3.55 µM [inhibitor, full curve, poor fit]"
9,CCNC(=O)/C(=C/c1ccc2c(c1)OCO2)NC(=O)c1ccc(Br)cc1,"inconclusive: 15.8 µM [inhibitor, partial curve]"
10,NS(=O)(=O)c1cccc(NC(=O)COC(=O)/C(=C/c2cccs2)c2cccs2)c1,"inconclusive: 35.5 µM [quencher, side channel, single point]"
11,N#Cc1c(N2CCN(c3ccc(F)cc3)CC2)nc(N)c2c(N)nc3c(c12)CC(=O)N3C1CC1,"inconclusive: 7.94 µM [quencher, side channel, partial curve]"
12,O=S(=O)(c1ccc2nc(Nc3ccccc3)ccc2c1)N1CCCCC1,"inconclusive: 5.01 µM [quencher, side channel, full curve]"
13,COC(=O)/C(C)=C/CC12OC(C)(C)C3CC(C=C4C(=O)c5cc6c(c(CCC(C)(C)Cl)c5OC431)OC1(C)CCC(=C(C)C)C6C1)C2=O (configuration not stated),inactive
14,COc1ccccc1N1CCN(C(=O)C(Cc2ccccc2)NC(=O)C2CCCCC2)CC1 (configuration not stated),"inconclusive: 7.08 µM [inhibitor, full curve, poor fit]"
15,Nc1nc(-c2sc3nc4c(cc3c2N)CCCC4)nc(N2CCOCC2)n1,"inconclusive: 10 µM [quencher, side channel, partial curve]"
16,CC(=O)C1=C(C)NC2=C(C(=O)c3ccccc32)C1c1ccccc1 (configuration not stated),"inconclusive: 20 µM [quencher, side channel, partial curve]"
17,COc1ccc(CCN(C)c2ncnc3sccc23)cc1OC,inactive
18,COC(=O)c1sc2nc(-c3ccco3)ccc2c1N,"inconclusive: 28.2 µM [quencher, single point]"
19,O=C(Oc1cccc2cccnc12)c1cccs1,"inconclusive: 8.91 µM [inhibitor, full curve, poor fit]"

row,Compound,Potency
1,Cc1ccc(S(=O)(=O)N/N=C/c2cccc(OC3CSC3)c2)cc1,"inconclusive: 39.8 µM [inhibitor, single point]"
2,CCc1nnc(NS(=O)(=O)c2ccc(NC(=O)/C=C/c3ccc(F)cc3)cc2)s1,"inconclusive: 12.6 µM [quencher, side channel, partial curve]"
3,O=C1CC(N(Cc2ccco2)C(=O)Nc2ccc(F)cc2)C(=O)N1c1ccc(F)cc1 (configuration not stated),"inconclusive: 20 µM [quencher, side channel, single point]"
4,O=C(Nc1ccc(N2CCOCC2)cc1)c1ccc(-c2ccccc2[N+](=O)[O-])o1,"inconclusive: 22.4 µM [quencher, side channel, partial curve]"
5,O=C(CN1CCCC1)Nc1ccccc1Sc1ccc(Cl)cc1,inactive
6,O=C(Nc1ncc([N+](=O)[O-])s1)c1ccccc1Br,"inconclusive: 17.8 µM [quencher, side channel, partial curve]"
7,COc1ccc2[nH]c(C)c(CCNC(=S)Nc3cc(C)ccc3C)c2c1,"inconclusive: 20 µM [quencher, side channel, single point]"
8,O=C(O)c1ccccc1CSc1nc2ccccc2o1,"inconclusive: 6.31 µM [inhibitor, single point]"
9,CCc1ccc2oc(=O)cc(CN3CCN(Cc4ccccc4)CC3)c2c1,"inconclusive: 12.6 µM [fluorescent, side channel, partial curve]"
10,COc1cccc(/C=N/Nc2nnc(C)n2N)c1O,"inconclusive: 14.1 µM [inhibitor, partial curve]"
11,CCN(CC)Cc1c(C(=O)N/N=C/c2ccc(OCc3ccccc3C)cc2)nnn1-c1nonc1N,inactive
12,COc1ccc(NC(=O)c2ccc(OC(F)F)cc2)cc1Cl,inactive
13,O=C(Nc1ccc(O)c(-c2nc3ccccc3s2)c1)C1=COCCO1,"inconclusive: 17.8 µM [quencher, side channel, single point]"
14,COC(=O)c1ccc2nc(Nc3nc4ccc(F)cc4s3)sc2c1,"inconclusive: 25.1 µM [quencher, side channel, partial curve]"
15,S=c1[nH]c2cc(-c3ccccc3)ccc2o1,"inconclusive: 25.1 µM [quencher, side channel, partial curve]"
16,CCOC(=O)CCSc1nc(C)c2cc(C)c(C)cc2n1,inactive
17,COC(=O)c1nnn(-c2nonc2N)c1CSc1nc2ccccc2s1,"inconclusive: 28.2 µM [quencher, side channel, single point]"
18,C=CCn1c(=S)[nH]c2scc(-c3ccc(C)o3)c2c1=O,"inconclusive: 28.2 µM [quencher, side channel, single point]"
19,CCCC(=O)N(Cc1cc(=O)[nH]c2ccccc12)c1ccc(C)cc1,"inconclusive: 10 µM [inhibitor, single point]"

# From PubChem BioAssay AID1768 (National Center for Advancing Translational Sciences (NCATS), 2009)
